# Measurements reported in ChEMBL document CHEMBL4888484, “Replenishing the malaria drug discovery pipeline: Screening and hit evaluation of the MMV Hit Generation Library 1 (HGL1) against asexual blood stage Plasmodium falciparum ,using a nano luciferase reporter read-out” (2022).
# About 540 (0.36%) of roughly 150,000 compounds showed an effect of 50% or more. Some of the results follow.
# System: Plasmodium falciparum
# Experiment: Primary screen in NF54 nanoGlo assay, in single point, at 2uM, 72h; a lower Z score goes with more inhibition
# Format: functional, Erythrocyte
# Settings: timepoint 72 hour
SMILES,% Inhibition,Z score
Cc1nc(CNC(=O)CC#N)sc1C,9%,-1.22
CCN(CCC#N)S(=O)(=O)N1CCN(c2cccs2)C(=O)C1,-2%,0.42
Cc1noc(C)c1[C@H](C)NS(=O)(=O)c1c(F)cccc1Cl,-15%,1.29
Cc1cc(C(C)NC(=O)CNCC2CCCO2)cc(C)c1F (stereo not given),0%,0.03
CCn1nc(C(=O)N2CC[C@H]2C2CCCC2)c(=O)c2ccccc21,-11%,1.54
CC(C)CCC(C)(O)CNC(=O)C1CC1C (stereo not given),0%,0.05
CCNC(=O)COc1ccc(NC(=O)c2cc(S(=O)(=O)NCc3ccco3)ccc2C)cc1,-12%,1.3
COc1ccc(CNC(=O)N2CCC3C(CCCN3C)C2)cc1Cl (stereo not given),2%,-0.4
Cc1cc(N2CCCCCC2)c(F)cc1C(=O)c1ccccc1,3%,-0.4
COc1cncc(N(C)Cc2nccn2CC(F)(F)F)n1,3%,-0.57
CN(Cc1n[nH]c(C(C)(C)C)n1)C[C@]1(O)CCc2ccccc21,-5%,0.93
CC1CCN(c2nc3c(c(N(C)C)n2)CN(C(=O)c2cccs2)CC3)CC1,-5%,0.59
Cc1cc(C(=O)N2C[C@H](C)Oc3ccc(Cl)cc32)ccc1N1CCOCC1,3%,-0.32
Cc1ocnc1C(=O)N1CCc2nc(N)nc(N3CC[C@H](O)C3)c2CC1,-11%,1.99
O=C(c1ccc(Br)o1)N1CC(c2nc(C3CC3)no2)C1,-20%,3.82
O=C1C[C@H](NC(=O)c2cc(C3CC3)on2)CN1,-8%,1.45
CNC(=O)[C@@H]1C[C@H](Oc2ccccc2)CN1C1CCN(C(=O)CCc2c(C)nn(C)c2C)CC1,1%,-0.19
Cc1cc(N2CCS(=O)(=O)CC2)c2cc(Cl)cc(C)c2n1,-16%,1.87
OC[C@H]1CN2CCC[C@H]2CN1Cc1ccc2cc[nH]c2c1,0%,0.03
Cn1cc(Br)c(CNC(=O)C2(C)CCOCC2)n1,3%,-0.4
Cc1ccc(C)c(S(=O)(=O)NCCn2c(-c3ccncc3)nc3ccccc32)c1,4%,-0.75
Cc1nc(C(=O)NCc2ccncc2C(F)(F)F)c(C)o1,-18%,2.02
COc1cccc(C(=O)N2CCN(C(=O)Cc3sc(C)nc3C)CC2)c1,-2%,0.34
Cc1n[nH]c(N2CCN(Cc3cccc4c3OCCO4)CC2)n1,-3%,0.36
CC[C@@]1(C)Oc2ccc(NCc3cc(C(N)=O)cs3)cc2O1,-14%,1.9
Cc1ccc(S(=O)(=O)N2CCCC(C(=O)N[C@@H]3CCCC[C@H]3NC(=O)c3ccccc3)C2)cc1 (stereo not given in full),-14%,1.69
O=C(NC1Cc2ccccc2C1)N1CC[C@H](N2CCOCC2)C1,-9%,1.17
CN(C)S(=O)(=O)c1ccc(NC(=O)NCC(F)(F)F)nc1,-9%,1.41

SMILES,% Inhibition,Z score
CCNC(=O)N1CC[C@H](c2noc(C3CC3)n2)C1,-5%,0.65
Cc1ncoc1CNC(=O)[C@H]1C[C@@H]1c1ccccc1,-9%,1.11
O=C(NCC(F)(F)F)N(Cc1ccc2c(c1)CCO2)C1CCCC1,1%,-0.12
CCC(C)(C)NS(=O)(=O)c1c(C)sc(C)c1-c1ccno1,-11%,1.88
O=C(NCCCNC(=O)c1cccnc1)c1cccnc1,-9%,1.79
CC1(CO)CCCC1NCC(O)C(F)(F)F (stereo not given),-1%,0.1
Cc1ccc2[nH]cc(-c3cccc(-n4cnnc4)c3)c2c1,0%,0.02
Cn1nccc1C(=O)NCc1ccc2c(c1)CCN2C(=O)c1ccccc1,-5%,0.87
CCN1C(=O)CO[C@H](C(=O)N[C@@H](CO)COC)[C@H]1c1ccccc1,-2%,0.34
COCc1csc(NC(=O)N2CC[C@H](C3CCCC3)C2)n1,3%,-0.61
CC(C)[C@H](C)NC(=O)Cc1csc(-c2ccc3c(c2)OCCO3)n1,-3%,0.3
Cc1nc(C(C)C)sc1C(=O)N1C[C@@H]2CC[C@H]1CN(S(C)(=O)=O)C2,1%,-0.24
COc1cc(CN2C(=O)[C@@H]3CCCN3C2=O)ncc1C,9%,-1.61
CCC(c1ccccc1)S(=O)(=O)NC(=O)[C@H]1CCCC[C@@H]1C(F)(F)F (stereo not given in full),4%,-0.78
Cc1nc(-c2ccc(C)c(S(=O)(=O)NC3CCC(C)CC3)c2)no1 (stereo not given),7%,-0.92
Cn1cc(C(F)F)c(CNC(=O)[C@]2(c3ccccc3)CCCO2)n1,1%,-0.22
Cc1nncn1CCN1CCO[C@@H](CC(C)C)C1,-8%,1.03
O=C(CN1C(=O)CCc2cc(S(=O)(=O)N3CCCC3)ccc21)NCc1ccc(Cl)cc1,-2%,0.29
O=C(C[C@H]1CCCO1)Nc1ccc(OC2CCC2)c(F)c1,-3%,0.38
Cc1ccc(C(F)(F)F)cc1CN(C)CC(C)(C)CO,6%,-0.63
COc1cccc(Cc2nc(CCc3ccc4c(c3)CCO4)no2)n1,-11%,1.54
CC1=CCCC(C)C1CNCC1CCCO1 (stereo not given),-9%,1.36
CCOC(=O)N1CCC(NC(=O)c2coc(NC(=O)c3ccco3)n2)CC1,-4%,0.56
CC(=O)Nc1cc(Br)ccc1CN1CCO[C@H](c2nc(C)n[nH]2)C1,1%,-0.17
Cc1ccc(C(=O)C(=O)Nc2cc(C(C)(C)C)nn2[C@H]2CCS(=O)(=O)C2)cc1,-23%,3.6
Fc1cccnc1O[C@H]1CCCN(c2nc(C3CC3)ns2)C1,3%,-0.35
COc1ccc(C(=O)N2C[C@@H]3C[C@H](N(C)C)CN3C(=O)[C@@H]2CC(C)C)cn1,-6%,0.79
